The record followed here is PubChem BioAssay AID360 (National Center for Advancing Translational Sciences (NCATS), 2006).

Structures are written as SMILES. About 550 (1.1%) of roughly 48,000 compounds were called active. Roughly 4% stayed inconclusive and do not appear here. Cut-off read from the data, not from the text of the source: active = potency below about 15 µM; inconclusive = mostly about 16 µM to 33 µM; inactive = weaker than that. The list shows a part of the results.
Potency is the fitted concentration of half-maximal effect.

UniProt P04062, sequence (P04062 whole entry, looked up): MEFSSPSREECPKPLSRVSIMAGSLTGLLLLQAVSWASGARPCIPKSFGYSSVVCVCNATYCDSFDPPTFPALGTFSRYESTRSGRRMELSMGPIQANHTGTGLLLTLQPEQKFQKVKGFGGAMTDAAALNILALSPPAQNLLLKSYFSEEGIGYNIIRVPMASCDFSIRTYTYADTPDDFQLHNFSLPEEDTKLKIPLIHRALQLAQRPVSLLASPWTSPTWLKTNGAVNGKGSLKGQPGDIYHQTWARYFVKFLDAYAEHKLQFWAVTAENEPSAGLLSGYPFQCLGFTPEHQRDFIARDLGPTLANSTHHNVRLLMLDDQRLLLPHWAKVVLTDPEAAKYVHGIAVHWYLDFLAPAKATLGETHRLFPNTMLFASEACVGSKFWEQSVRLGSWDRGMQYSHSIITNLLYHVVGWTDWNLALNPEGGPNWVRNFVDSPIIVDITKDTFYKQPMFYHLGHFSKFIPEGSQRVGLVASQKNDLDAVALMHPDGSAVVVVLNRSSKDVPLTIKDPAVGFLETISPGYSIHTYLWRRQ

In the assay the target is Lysosomal acid glucosylceramidase (Homo sapiens) (UniProt P04062). Put plainly: Glucocerebrosidase.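 Note: the screen sought inhibitors.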 To be noted: purified enzyme, resorufin glucoside fluorescence (screen aimed at inhibitors), 20 min; series mostly up to 77 µM. The procedure, abridged:
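Wild-type enzyme at 0.2 nM final in 50mM citric acid/KH2PO4, 10mM sodium taurocholate, 0.01% tween-20, pH 5.9, with resorufin beta-D-glucopyranoside at 30 uM final. Compounds titrated, 20 min at RT, red fluorescence read; AC50 from titration.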
As to `Cc1cc(C)nc(-n2nc(C)cc2NC(=O)COC(=O)CCC(=O)c2cccs2)n1`, the Potency was inactive: > 76.9 µM.
Regarding `CC1Cc2ccccc2N1C(=O)CSc1nnc2sc3ccccc3n12` (stereo not given), the Potency is inactive: > 76.9 µM.
For the compound `COc1ccccc1-c1cc(C(=O)NC(C)c2ccccc2)no1` (stereo not given), the Potency was inactive: > 76.9 µM.
Take `CCOc1ccc(OCC)c(NC(=O)CSc2nnc(Cn3cnc4ccccc43)n2C)c1`: the Potency is inactive: > 76.9 µM.
On to `COc1nc(Oc2ccc(=O)[nH]n2)nc(N2CCOCC2)n1`, for which the Potency is inactive: > 76.9 µM.
To `CC(=O)NCCOc1cccc2ccccc12` belongs inactive: > 76.9 µM; to `COc1ccc(N(C(C)=O)C2C=CS(=O)(=O)C2)c(OC)c1` (stereo not given), inactive: > 76.9 µM.
For the compound `O=C(Nc1ccc2c(c1)OCO2)C1CCCN(S(=O)(=O)c2cccs2)C1` (stereo not given), the Potency entry was “inactive”.
For the compound `COc1ccc(CCNc2oc(-c3ccccc3OC)nc2C#N)cc1`, the Potency was inactive: > 76.9 µM.
As for `CCOc1ccc(N2C(=O)c3cccnc3C2Nc2ccc(F)cc2)cc1` (stereo not given), the Potency is inactive: > 76.9 µM.
For the compound `CCC1=[N+]([O-])C(C)(/C(C)=N\O)N(O)C1(C)C` (stereo not given), the Potency was inactive: > 76.9 µM.
The value for `CC(C)(C)NC(=O)C(c1ccccn1)N(C(=O)c1ccc2c(c1)OCCO2)C1CCCC1` (stereo not given) was inactive: > 76.9 µM; that for `COCCN(C(=O)Cn1nnc2ccccc21)C(C(=O)NC1CCCC1)c1cc(OC)ccc1OC` (stereo not given) was inactive: > 76.9 µM.
The value for `CCOC(=O)Cc1csc(NC(=O)COc2ccccc2)n1` was inactive: > 76.9 µM.
Consider `O=C(NCc1ccc(F)cc1)C1CCN(C(=O)NCc2ccccc2)CC1`, for which the Potency was inactive: > 76.9 µM.
For `O=C(NCCCN1CCCC1=O)c1nnc(Cc2c(F)cccc2Cl)o1`, the Potency was inactive: > 76.9 µM.
For `CC(=O)Nc1ccc(S(=O)(=O)N(C2=NCC(C)S2)c2ccccc2)cc1` (stereo not given), the Potency is inactive: > 76.9 µM.
Turning to `CCn1c(SCC(=O)Nc2cccc(OC)c2)nnc1-c1ccc(Cl)cc1`, the Potency was inactive: > 76.9 µM.
For `Cc1ccc(NC(=O)COC(=O)CN2CSCC2=O)cc1C`, the Potency is inactive: > 76.9 µM.
As to `CCOC(=O)C(NC(=O)Nc1ncccn1)(Oc1ccccc1)C(F)(F)F` (stereo not given), the Potency is inactive: > 76.9 µM.
To `CCS(=O)(=O)N1CCC(C(=O)NCc2ccc(F)cc2)CC1` belongs inactive: > 76.9 µM; to `Cc1ccc(S(=O)(=O)N2c3ccccc3NC(=O)C2CC(=O)Nc2ccccc2)cc1` (stereo not given), inactive: > 76.9 µM.
Consider `O=C(Oc1ccccc1)c1cc2ccccc2o1`, for which the Potency was inactive: > 76.9 µM.
For the compound `CCn1c(SCC(=O)NCc2ccc3c(c2)OCO3)nnc1-c1cccs1`, the Potency is inactive: > 76.9 µM.
Turning to `O=C(CN1C(=O)NC2(CCCCC2)C1=O)Nc1ccc(S(=O)(=O)N2CCOCC2)cc1`, the Potency was inactive: > 76.9 µM.
As to `CC(=O)c1ccc(N2CCN(C(=O)C3CCC3)CC2)cc1`, the Potency was inactive: > 76.9 µM.
Consider `CCCc1[nH]nc2c1C(c1ccc(OC)c(Cn3nnc4ccccc43)c1)C(C#N)=C(N)O2` (stereo not given), for which the Potency was inactive: > 76.9 µM.
With `CCCC(=O)NCCc1nc2ccccc2n1C`, the Potency was inactive: > 76.9 µM.
In the case of `CCOc1ccccc1C(=O)N(Cc1cccs1)C1CCS(=O)(=O)C1` (stereo not given), the Potency is inactive: > 76.9 µM.
As for `O=C1C(=O)N(CCCN2CCOCC2)C(c2cccs2)/C1=C(/O)c1ccc2c(c1)OCO2` (stereo not given), the Potency is inactive: > 76.9 µM.
Take `Cc1cc(NC(=O)CSc2ccccc2)no1`: the Potency was inactive: > 76.9 µM.
Turning to `O=C(COC(=O)c1cccnc1)Nc1ccc(F)cc1`, the Potency is inactive: > 76.9 µM.
With `Fc1ccc(C(c2nnnn2C2CCCC2)N2CCN(Cc3ccccc3)CC2)cc1` (stereo not given), the Potency is inactive: > 76.9 µM.
The value for `Cn1c(SCC(=O)NC2CC2)nnc1-c1ccco1` was inactive: > 76.9 µM.
As to `O=C(CCn1c(=S)[nH]c2cc3c(cc2c1=O)OCO3)N1CCN(C2CCCCC2)CC1`, the Potency is inactive: > 76.9 µM.
In the case of `CSc1nc2ccc(NC(=O)C3CC(=O)N(Cc4ccco4)C3)cc2s1` (stereo not given), the Potency was inactive: > 76.9 µM.
On to `CN(C)S(=O)(=O)c1ccc2c(c1)C(CC(=O)O)OC2=O` (stereo not given), for which the Potency was inactive: > 76.9 µM.
`Cc1ccccc1NS(=O)(=O)c1cc(C(=O)NCc2ccco2)ccc1C`: the Potency was inactive: > 76.9 µM.
The value for `CCN1CCN(C(=O)c2cn(CCOC)c(=O)c3c2c2ccccc2n3C)CC1` was inactive: > 76.9 µM; that for `COc1ccc(C2(CNC(=O)CCC(=O)O)CCCC2)cc1` was inactive: > 76.9 µM; that for `COc1ccc(-c2nc3nc(C)c(Cc4ccccc4)c(=O)n3[nH]2)cc1` was inactive: > 76.9 µM.
As for `Cc1cc(-c2ccccc2)nn1-c1nc2c(c(=O)[nH]c(=O)n2C)n1C`, the Potency was inactive: > 76.9 µM.
`N#CC(C(=O)C1CCCCC1)c1nc2ccccc2[nH]1` (stereo not given): the Potency is inactive: > 76.9 µM.
For the compound `S=c1[nH]ncn1/N=C/c1ccccc1`, the Potency is inactive: > 76.9 µM.
On to `COc1ccc(OC)c(NC(=O)CSC2=NCCS2)c1`, for which the Potency was inactive: > 76.9 µM.
The value for `C=CCn1c(SCC(=O)Nc2nnc(CC)s2)nnc1-c1ccco1` was inactive: > 76.9 µM; that for `O=C(NCC1COc2ccccc2O1)C1CCN(S(=O)(=O)c2cccc3nsnc23)CC1` (stereo not given) was inactive: > 76.9 µM; that for `O=S(=O)(c1ccc(Oc2ccc(Br)cc2)cc1)N1CCOCC1` was inactive: > 76.9 µM.
As for `O=C1c2ccccc2NC(c2ccccn2)N1c1ccc(Cl)cc1` (stereo not given), the Potency was inactive: > 76.9 µM.
`O=c1c2ccccc2nc(-c2ccccc2)n1CCCn1ccnc1`: the Potency is inactive: > 76.9 µM.
With `O=C(CSc1nnnn1-c1ccc2c(c1)OCCO2)N1CCc2ccccc21`, the Potency is inactive: > 76.9 µM.
Take `CCOC(=O)C1CCCCN1C(=O)CCc1c(C)nc2ncnn2c1C` (stereo not given): the Potency is inactive: > 76.9 µM.
`Cc1cc(C(=O)CN2C(=O)C3CC=CCC3C2=O)c(C)n1-c1ccccc1` (stereo not given): the Potency was inactive: > 76.9 µM.
Turning to `O=C(Nc1ccc2c(c1)CCC2)C1CCCO1` (stereo not given), the Potency is inactive: > 76.9 µM.
On to `O=C(O)C1CCCCC1C(=O)NCCc1ccc(Cl)cc1` (stereo not given), for which the Potency is inactive: > 76.9 µM.
`Cn1c(=O)c2c(nc(CN3CCC(C(N)=O)CC3)n2Cc2c(Cl)cccc2Cl)n(C)c1=O`: the Potency was inactive: > 76.9 µM.
To `CCc1nnc(NC(=O)Cn2nc(-c3ccccc3OC)ccc2=O)s1` belongs inactive: > 76.9 µM; to `COCCn1c(NCc2ccc(C)cc2)nc2c1c(=O)[nH]c(=O)n2C`, inactive: > 76.9 µM; to `CCCCOc1ccccc1NC(=O)c1ccc(=O)[nH]c1`, inactive: > 76.9 µM.
The value for `O=C(COc1ccccc1Cl)OCC(=O)N1CCN(S(=O)(=O)c2ccccc2)CC1` was inactive: > 76.9 µM; that for `COCCn1c(CNc2ccc(F)cc2)nnc1SCC(=O)Nc1ccc(OC)cc1OC` was inactive: > 76.9 µM.
To `Cc1ccc2nc(SCc3nnc(-c4cccs4)o3)[nH]c2c1` belongs inactive: > 76.9 µM; to `CC(C)n1c(-c2ccco2)csc1=Nc1cccnc1`, inactive: > 76.9 µM.
With `CCOc1ccc(CNC(=O)C2CCN(S(=O)(=O)N3CCCC3)CC2)cc1OC`, the Potency is inactive: > 76.9 µM.
For `O=S1(=O)C=C(N2CCCCC2)c2ccccc21`, the Potency was inactive: > 76.9 µM.
On to `COc1ccc(C2C(C#N)=C(N)Oc3cc(C)n(Cc4ccncc4)c(=O)c32)cc1` (stereo not given), for which the Potency was inactive: > 76.9 µM.
Regarding `CCOC(=O)C(NC(=O)N1CCCCC1)(c1ccccc1)C(F)(F)F` (stereo not given), the Potency was inactive: > 76.9 µM.
Regarding `COc1ccc2c(c1)c1nnc(SC)nc1n2C`, the Potency is inactive: > 76.9 µM.
As for `CNC(=O)C1C2C=CC3(O2)C1C(=O)N(C1CC1)C3C(=O)NCc1ccc(OC)cc1` (stereo not given), the Potency is inactive: > 76.9 µM.
For the compound `CCCS(=O)(=O)N1CCC(C(=O)NCCN2CCCC2)CC1`, the Potency was inactive: > 76.9 µM.
Consider `CCOC(=O)C1CCCN(C(=O)c2ccc3c(c2)NC(=O)C(N2CCOCC2)S3)C1` (stereo not given), for which the Potency is inactive: > 76.9 µM.
For the compound `COCCn1c(N)c(C(=O)NCc2cccs2)c2nc3ccccc3nc21`, the Potency was inactive: > 76.9 µM.
Consider `CC1CN(Cc2nc3c(c(=O)[nH]c(=O)n3C)n2CCN2CCOCC2)CC(C)O1` (stereo not given), for which the Potency is inactive: > 76.9 µM.
Regarding `CCCn1c(SCC(=O)Nc2ccc3c(c2)OCCO3)nnc1-c1ccco1`, the Potency was inactive: > 76.9 µM.
For `O=C(CN(Cc1ccccc1F)C(=O)Cn1nnc(-c2cccs2)n1)NCC1CCCO1` (stereo not given), the Potency is inactive: > 76.9 µM.
Regarding `CCCCC(=O)NC(Nc1nc(C2CC2)cs1)(C(=O)OCC)C(F)(F)F` (stereo not given), the Potency was inactive: > 76.9 µM.
Regarding `COc1cc(OC)cc(-c2nnc(SCC(=O)Nc3cc(C)on3)o2)c1`, the Potency was inactive: > 76.9 µM.
To `Cc1cc(C)nc(SCc2nc3ccccc3n2C)n1` belongs inactive: > 76.9 µM; to `C=CCN1C(=O)/C(=C2/Sc3ccccc3N2CCCS(=O)(=O)O)SC1=S`, inactive: > 76.9 µM.
As for `CCCCN=c1sc(C(=O)OC)cc(=O)n1CCCC`, the Potency was inactive: > 76.9 µM.
For the compound `CCOc1cc(C(=O)N2CCCC2)cc(OCC)c1OCC`, the Potency is inactive: > 76.9 µM.
Regarding `O=c1[nH]c(N2CCOCC2)nc2ncn(Cc3ccccc3)c12`, the Potency was inactive: > 76.9 µM.
In the case of `CCCc1[nH]nc2c1C(c1cc(OC)ccc1F)C(C#N)=C(N)O2` (stereo not given), the Potency was inactive: > 76.9 µM.
The value for `N#Cc1cn(-c2ccccc2)nc1-c1ccccc1` was inactive: > 76.9 µM; that for `CC(=Nc1ccc2c(c1)nc(CO)n2C)C1=C(O)CC(C)(C)CC1=O` was “inactive”.
In the case of `CCCOC(=O)Nc1cc(OC)c(Cl)cc1OC`, the Potency is inactive: > 76.9 µM.
Consider `O=C1CC(N2CCN(CCc3ccccn3)CC2)C(=O)N1c1ccc(Cl)cc1` (stereo not given), for which the Potency was inactive: > 76.9 µM.
With `Cc1cc2c(=O)n(CC(=O)N3CCN(c4ccc(F)cc4)CC3)cnc2s1`, the Potency was inactive: > 76.9 µM.
For the compound `O=S(=O)(c1ccc(N2CCOCC2)cc1)N1CCOCC1`, the Potency was inactive: > 76.9 µM.
For `N#C/C=C\Oc1ccc(Cl)cc1N`, the Potency was inactive: > 76.9 µM.
